Results published in article PMC4336329 (PLoS ONE, 2015).
Out of some 310,000 compounds screened, about 14,000 (4.5%) showed an effect of 50% or more. The effect is printed as a negative number. Some of the results follow.

Molecular target: human ether-à-go-go-related gene (hERG) potassium channel (human, UniProt Q12809)
Assay: primary screen, population patch clamp on CHO cells stably expressing hERG
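Further: peak tail current of the secondary pulse compared with the same well before compound.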

Chain of human ether-à-go-go-related gene (hERG) potassium channel (Q12809 whole entry, looked up): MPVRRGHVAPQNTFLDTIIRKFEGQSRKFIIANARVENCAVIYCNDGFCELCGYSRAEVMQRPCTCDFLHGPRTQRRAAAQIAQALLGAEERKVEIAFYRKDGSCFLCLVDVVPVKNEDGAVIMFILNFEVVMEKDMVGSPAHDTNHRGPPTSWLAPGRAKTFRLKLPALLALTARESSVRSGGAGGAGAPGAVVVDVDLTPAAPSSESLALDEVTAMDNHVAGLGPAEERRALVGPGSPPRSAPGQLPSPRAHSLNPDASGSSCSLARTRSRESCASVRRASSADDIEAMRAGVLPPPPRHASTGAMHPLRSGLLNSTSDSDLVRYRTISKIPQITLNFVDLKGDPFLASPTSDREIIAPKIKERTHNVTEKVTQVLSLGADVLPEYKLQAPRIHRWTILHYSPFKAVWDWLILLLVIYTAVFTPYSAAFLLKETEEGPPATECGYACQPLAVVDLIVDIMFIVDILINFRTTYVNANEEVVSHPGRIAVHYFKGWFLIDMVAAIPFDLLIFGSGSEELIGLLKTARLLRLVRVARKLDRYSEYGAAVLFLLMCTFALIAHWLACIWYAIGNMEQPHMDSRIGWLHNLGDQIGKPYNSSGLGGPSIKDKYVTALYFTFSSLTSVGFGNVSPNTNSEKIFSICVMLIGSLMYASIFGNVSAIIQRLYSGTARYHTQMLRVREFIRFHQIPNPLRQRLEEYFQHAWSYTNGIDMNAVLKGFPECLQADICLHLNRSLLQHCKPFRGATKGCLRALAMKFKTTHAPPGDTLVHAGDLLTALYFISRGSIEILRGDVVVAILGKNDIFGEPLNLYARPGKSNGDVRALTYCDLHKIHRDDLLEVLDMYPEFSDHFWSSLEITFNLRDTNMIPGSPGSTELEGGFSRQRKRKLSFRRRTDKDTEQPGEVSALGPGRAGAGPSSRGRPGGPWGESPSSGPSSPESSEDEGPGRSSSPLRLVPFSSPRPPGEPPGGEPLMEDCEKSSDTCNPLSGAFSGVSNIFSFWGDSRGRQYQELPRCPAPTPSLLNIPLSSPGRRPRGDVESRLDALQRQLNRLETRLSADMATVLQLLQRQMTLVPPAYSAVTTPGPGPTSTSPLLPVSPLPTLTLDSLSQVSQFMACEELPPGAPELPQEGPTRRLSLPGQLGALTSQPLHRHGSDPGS

Compound | hERG current change (%, negative = inhibition) at 10uM
CCOC(=O)c1nn(-c2ccc(C)cc2)c(=O)c2c(N)scc12 | -3.9%
COc1ccc(Br)cc1C(=O)Nc1cc(C)cc(C)c1 | 5.21%
CCn1c2ccccc2c(=O)c2ccccc21 | -0.474%
C#CCNC(=O)C1=C[C@@H](c2coc3ccccc3c2=O)C[C@@H](OCc2ccc(CO)cc2)O1 | -33%
COc1ccccc1CCNC(=O)c1ccoc1C | 3.49%
CCOC(=O)c1c(CN2CCN(CCO)CC2)n(C)c2cc(Br)c(OC)cc12 | -11.3%
CCN(CC)S(=O)(=O)c1ccc(F)c(C(=O)OC2CC(C)OC2=O)c1 (stereo not drawn) | -2.4%
COc1ccc(CCNC(=O)Cn2c(-c3nonc3N)nc3ccccc32)cc1OC | -4.07%
Cc1ncc(CCl)c2c1OC(C)(C)OC2.Cl | 10.2%
CCc1nnc(NC(=O)C(C)N2C(=O)C3C4C=CC(C4)C3C2=O)s1 (stereo not drawn) | -0.654%
CCC(C)c1ccc(NC(=O)CN(C)CC(=O)Nc2cccc(OC)c2)cc1 (stereo not drawn) | -3.55%
CNC(=S)N/N=C(\C)c1cccc([N+](=O)[O-])c1 | -10%
COc1ccc(OC)c(S(=O)(=O)N2CCCCC2C(=O)O)c1 (stereo not drawn) | -2.13%
N#CC(c1ccccc1)N(CCCCl)C(=O)c1ccc(Br)cc1 (stereo not drawn) | -9.57%
CNC(=O)N(c1ccccc1)c1ccccc1 | 3.75%
Cc1ccc(N(CC(=O)NC2CCCCC2)C(=O)CCCC(=O)Nc2ccccn2)cc1 | 9.72%
COc1ccccc1OCc1nc(-c2ccc([N+](=O)[O-])cc2)no1 | 0.0301%
O=C1CC(Sc2cccs2)C(=O)N1c1ccccc1 (stereo not drawn) | 14.5%
O=C(Nc1sc2c(c1C(=O)O)CCC2)c1ccc(F)cc1 | 29.8%

Compound | hERG current change (%, negative = inhibition) at 10uM
Cc1ccccc1S(=O)(=O)c1c(C)cc(C)n(C(C)C)c1=O | -14.9%
COC(=O)[C@@]1(Cc2ccc(F)cc2)[C@H]2c3cc(C(=O)N(C)C)n(CCc4ccccn4)c3C[C@H]2CN1C(=O)c1ccccc1 | -64.8%
CCOc1ccc(C2NC(=O)c3ccccc3O2)cc1OC (stereo not drawn) | 17.1%
CCN(CC)CCCNC(=O)c1c(O)c2cc(F)cc3c2n(c1=O)C(C)CC3.Cl (stereo not drawn) | -50.5%
Cc1ccc2occ(C3N[C@H](C(=O)O)CS3)c(=O)c2c1 (stereo partly drawn) | 4.25%
COc1cc2c(cc1NC(=O)CSc1ccccn1)oc1ccccc12 | 17%
COc1ccc(CN2CCN(Cc3cc4ccccc4o3)CC2CCO)c(F)c1 (stereo not drawn) | -60.9%
CCCCCc1c(C)[nH]c2nc3ccccc3n2c1=O | 12.2%
CCCCn1c(N)c(N(CCOC)C(=O)C2CCN(C(=O)c3ccccc3C)CC2)c(=O)[nH]c1=O | -4.9%
O=C(c1cccc(F)c1)N1CCCC(C(=O)N2CCCCC2)C1 (stereo not drawn) | 16.6%
Cc1cc2c(c(/C=C/C(=O)c3ccccc3)c1)OC1(C=C2)Oc2ccccc2C(=O)N1C (stereo not drawn) | 12.7%
COc1ccccc1-n1cccc1C=O | 26.9%
O=S(=O)(Nc1ccc(Cl)cn1)c1cccc(S(=O)(=O)c2ccccc2)c1 | -6.89%
Fc1ccccc1-n1c(-c2ccc3ccccc3n2)n[nH]c1=S | 7.45%
CCN(C(=O)c1c(-c2ccccc2)noc1C)c1ccccc1 | 1.1%
CCOC(=O)C1CCN(C(=O)c2cc3c(s2)-c2ccccc2OC3)CC1 | -38.9%
O=C(Nc1ccc2c(c1)Cc1ccccc1-2)c1cc2ccccc2o1 | 7.73%
Cn1c(=S)n(/N=C/c2cccs2)c2ccccc21 | -7.88%
Cc1ccc(NC(=O)CN2C(=O)c3ccccc3S2(=O)=O)cc1C | 14.5%

Compound | hERG current change (%, negative = inhibition) at 10uM
Nn1c(SCC(=O)N2CCCc3ccccc32)nnc1-c1ccccc1 | 2.21%
CSc1nnc2n(C)c3c(c(=O)n12)C1(CCCC1)Cc1ccccc1-3 | 2.33%
COc1ccccc1OCC(=O)NNC(=O)c1ccc2c(=O)n3c(nc2c1)CCC3 | 12.9%
O=C(O)C(F)(F)F.Oc1cc(-c2cccnc2)cc2cccnc12 | 13.3%
N#Cc1cnn(Cc2ccc(Cl)cc2)c1N | -13%
Cc1c(C(=O)C(C)C)n(C)c2ccccc12 | 7.37%
CC(Oc1ccc(Cl)cc1Cl)C(=O)NCCCn1ccnc1 (stereo not drawn) | -28%
O=C(CCC(=O)OCC(F)(F)C(F)F)NCc1ccccc1 | 5.56%
Nc1ncc(Br)cc1S(=O)(=O)NCCC(=O)N1CCN(c2ccccc2)CC1 | -8.45%
CCOC(=O)CS(=O)(=O)CC(=O)Nc1ccc([N+](=O)[O-])cc1OC | -5.39%
COc1cccc(-c2csc(N3CCN(C(=O)NC45CC6CC(CC(C6)C4)C5)CC3)n2)c1 | 11.1%
CC1CCCC(N2CCN(C(=O)c3ccc([N+](=O)[O-])cc3)CC2)C1.O=C(O)C(=O)O (stereo not drawn) | -71.9%
CCOC(=O)N1CCC(C(=O)NNC(=O)c2ccc(Cl)cc2Cl)CC1 | 4.03%
C=CCc1ccc(OCCOCCOc2ccccc2[N+](=O)[O-])c(OC)c1 | -20.2%
CC(C)(C)CC(=O)Nc1nnc(CCc2ccccc2)s1 | 10.1%
CC(C)CC1C(C#N)=C(N)Oc2n[nH]c(-c3ccccc3)c21 (stereo not drawn) | 7.28%
O=C(COc1ccc2c3c(c(=O)oc2c1)CCC3)NCCCN1CCCC1=O | 9.37%
COc1ccc(NC(=O)C(=O)NCC(c2ccco2)N2CCc3ccccc3C2)cc1OC (stereo not drawn) | -69.4%
CCn1cc(C(=O)NCC2CCCO2)c(=O)c2cc(S(=O)(=O)N(C)C)ccc21 (stereo not drawn) | 3.99%
